# Laboratory results published in PubChem BioAssay AID686971 (National Center for Advancing Translational Sciences (NCATS), 2013).
# Out of some 360,000 compounds screened, about 7,500 (2.1%) were called active. Inconclusive results, whose numbers are uncertain, are shown with a selection of clear calls. Calls follow the shape of the dose curve; as a rule, active = well fitted cell-killing curve with a large enough effect; inconclusive = small, poorly fitted or top-dose-only effect, or effect the other way, or another doubt; inactive = no such curve, though single readings can be large or run the other way. Potencies of inconclusive entries are left out as doubtful fits.
# Assay: qHTS for induction of synthetic lethality in tumor cells producing 2HG: qHTS for the HT-1080-IDH1KD cell line;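 as to activity, negative = toxicity: 0% = DMSO wells and -100% = cell-free medium wells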
# Details: HT-1080 IDH1 knockdown viability, ATP luminescence, 48 h; activity, negative = toxicity: at 46.1 µM (top of the series) unless noted
# In short: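 Luminescent ATP read-out (CellTiter-Glo, 10 min at room temperature) after 48 h compound exposure at 37 °C gave viability of IDH1-knockdown HT-1080 cells. Activity was normalised to DMSO and cell-free wells, then fitted as concentration-response curves.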
# Potency is read from the fitted curve at half-maximal effect; tags tell the direction and shape of the fitted curve.
SMILES,Potency,"activity, negative = toxicity"
Cc1cccc(N2CCN(C(=O)C3CC(=O)N(c4ccc5c(c4)OCCO5)C3)CC2C)c1 (stereo not drawn),"inconclusive [cytotoxic, single point]",–
COc1cccc(/C=C2\SC(=S)N(CCC(=O)NC3C=CS(=O)(=O)C3)C2=O)c1 (stereo not drawn),"inconclusive [cytotoxic, single point]",–
CCN(CC)CCNC(=O)C(Cl)=C1C(Cl)=C(Cl)C(Cl)=C1Cl,"inconclusive [cytotoxic, single point]",–
COC(=O)C(=C/C(C)=C/c1cccs1)C(=O)OC,"inconclusive [cytotoxic, single point]",–
O=C(NNC(=S)Nc1cccc(C(F)(F)F)c1)c1cccc(Cl)c1,"inconclusive [cytotoxic, single point]",–
CCCCc1ccc(NC(=O)CSc2nc(=O)n(CCN(CC)CC)c3c2CCCC3)cc1,"inconclusive [cytotoxic, single point]",–
COc1cc(/C=C/c2cccc[n+]2C)ccc1OCC(=O)Nc1cccc(Cl)c1,inactive,–
COc1ccccc1N1CCN(S(=O)(=O)c2cc(Br)cnc2N)CC1,"inconclusive [cytotoxic, single point]",–
CCCc1[nH]n(-c2ccc([N+](=O)[O-])cc2)c(=O)c1C=NCCc1c[nH]c2ccccc12,"inconclusive [cytotoxic, single point]",–
C/C(=N\N=C(N)N)c1cc(Cl)ccc1Cl,"inconclusive [cytotoxic, partial curve]",–
COc1ccccc1/C=C1\CCCC2=C1Nc1nnnn1C2c1ccccc1OC (stereo not drawn),"inconclusive [cytotoxic, single point]",–
FC(F)(F)c1cccc(NC(=S)NCc2ccc(Cl)cc2)c1,"inconclusive [cytotoxic, single point]",–
C[C@@H]1C[C@H]2[C@@H]3C[C@H](F)C4=CC(=O)C=C[C@]4(C)[C@@]3(F)[C@@H](O)C[C@]2(C)[C@@]1(O)C(=O)CO,–,inconclusive: 20.4%
Cc1c(-c2cccc(Cl)c2)nc2ccccc2c1C(=O)OCC(=O)Nc1ccc2c(c1)OCO2,"inconclusive [cytotoxic, single point]",–
CCc1ccc(C2c3[nH]c4ccccc4c3CCN2C(=O)c2cc(C)nn2C)cc1 (stereo not drawn),"inconclusive [cytotoxic, single point]",–
COCC(C)NC(=O)Cc1ccc(F)cc1 (stereo not drawn),inactive,–
CN(C1=NC(=O)C(CC(=O)Nc2ccc(Br)cc2)S1)c1ccc(O)cc1 (stereo not drawn),active: 7.94 µM,–
CC(=O)c1cccc(NC(=O)CSc2nc(C3CC3)nc3ccccc23)c1,"inconclusive [cytotoxic, partial curve]",–
O=C(c1ccccc1)N1N=C(c2ccco2)CC1c1cccs1 (stereo not drawn),inactive,–
Cc1ccc(C(C#N)c2ccc(C(=O)c3ccc(F)cc3)cc2)cc1 (stereo not drawn),"inconclusive [cytotoxic, single point]",–
[O-][n+]1onc2c1CCc1c-2nn(-c2ccccc2Cl)[n+]1[O-],active: 11.2 µM,–
COc1ccccc1-n1cnc(N)c1C(=O)c1ccccc1,active: 25.9 µM,–
CCC(Oc1ccccc1)C(=O)O/N=C(\N)c1ccc(OC)c(OC)c1 (stereo not drawn),inactive,–

SMILES,Potency,"activity, negative = toxicity"
Cc1cccc(/C=C(\c2nc3ccccc3[nH]2)S(=O)(=O)c2ccccc2)c1,active: 9.2 µM,–
O=C1CC(c2ccccc2)CC(O)=C1C=Nc1ccc(O)cc1 (stereo not drawn),inactive,–
COc1cc(C2CC(=O)c3c(O)cc(O)cc3O2)ccc1O (stereo not drawn),"inconclusive [cytotoxic, single point]",–
COc1ccc(C(=O)N/N=C/c2sc3ccccc3c2O)cc1,"inconclusive [cytotoxic, partial curve]",–
S=C(N/N=C/c1ccc(Cl)c(Cl)c1)Nc1ccccc1Cl,active: 8.2 µM,–
COc1ccc(NS(=O)(=O)c2ccc(OC)c(N(C)S(=O)(=O)c3ccc(Cl)cc3)c2)cc1,"inconclusive [cytotoxic, single point]",–
CC1C(=O)N(Cc2cn(CC3CCCCC3)nn2)CCS(=O)(=O)N1Cc1ccc(-c2ccc(Cl)cc2)cc1 (stereo not drawn),active: 16.4 µM,–
C=C1CCN([C@@H](C)C(=O)NCc2ccc(Cl)cc2)S(=O)(=O)c2ccccc21,inactive,–
COc1ccc(OC)c(-c2csc(NC(=O)c3ccc(F)cc3)n2)c1,"inconclusive [cytotoxic, single point]",–
CNc1nc(N2CCc3ccccc32)ncc1F,inactive,–
COc1ccc(Cl)cc1NC(=O)CN(C)C(=O)CCCc1c[nH]c2ccccc12,"inconclusive [cytotoxic, single point]",–
CCN=c1scc(-c2ccc3c(c2)NC(=O)CO3)n1N=C1CCCC1,"inconclusive [cytotoxic, partial curve]",–
COc1cc(NC(=O)CN2C(=O)CN(C)C2=O)c(C)cc1[N+](=O)[O-],"inconclusive [cytotoxic, single point]",–
CCOC(=S)SCC(=O)N1CCc2cc(OC)ccc2C1C1C(=O)CCCC1=O (stereo not drawn),active: 23.1 µM,–
CCCCNC(=O)C(C)N(CCN(C)C)C(=O)CCCN1C(=O)NC(c2ccc(Cl)cc2)C(C(=O)OCc2ccccc2)=C1C (stereo not drawn),"inconclusive [cytotoxic, single point]",–
COc1ccc2[nH]c3c(C)c4cc[n+](C)cc4c(C)c3c2c1,"inconclusive [cytotoxic, single point]",–
Cc1ccc(NC(=O)CSc2nc3ccccc3c(=O)n2CCCN2CCCCC2)cc1C,"inconclusive [cytotoxic, single point]",–
Clc1ccc(/C(Cc2nc3ccccc3[nH]2)=N\Nc2ccccc2)cc1,"inconclusive [cytotoxic, single point]",–
COc1cc2c(cc1OC)C1=C(C#N)CC/C(=N\S(=O)(=O)c3cccc(Cl)c3)N1CC2,"inconclusive [cytotoxic, single point]",–
Cc1cccc(C(=O)N[C@H](C(=O)Nc2ccc(C)c(S(=O)(=O)N3CCOCC3)c2)C(C)C)c1,inactive,–
CC(=O)Nc1nc2ccccc2n1Cc1ccccc1Cl,"inconclusive [cytotoxic, partial curve]",–
COc1ccc([N+](=O)[O-])cc1NCc1cccc([N+](=O)[O-])c1,"inconclusive [cytotoxic, partial curve]",–
CC(NC(=O)c1ccccc1)C(=O)NC1=NCCS1 (stereo not drawn),inactive,–

SMILES,Potency,"activity, negative = toxicity"
Cc1ccc(S(=O)(=O)N(C)C[C@@H]2Oc3ncc(C#CCC(C)C)cc3C(=O)N([C@H](C)CO)C[C@H]2C)cc1,"inconclusive [cytotoxic, single point]",–
COc1ccc(/C=N/Nc2cc(C)nc3ccccc23)cc1,"inconclusive [cytotoxic, single point]",–
CCOC(=O)C1=CN(Cc2cccc(F)c2)S(=O)(=O)NC1CCc1ccccc1 (stereo not drawn),"inconclusive [cytotoxic, single point]",–
COc1ccccc1NC(=O)Cn1nnc(C(=O)NCc2ccc3c(c2)OCO3)c1N,"inconclusive [cytotoxic, single point]",–
NC(=O)CSc1nc2ccc([N+](=O)[O-])cc2[nH]1,inactive,–
Cc1nn(Cc2ccccc2Cl)c(C)c1NC(=O)NC12CC3CC(CC(C3)C1)C2,"inconclusive [cytotoxic, single point]",–
O=C(CCc1nc(-c2ccccc2F)no1)Nc1ccc(Oc2ccccc2)cc1,active: 16.4 µM,–
Cc1cc(NC(=O)c2ccc3c(c2)OCO3)ccc1NC(=O)c1ccco1,active: 18.4 µM,–
CN(C)c1ccc(Sc2ccc3nc(N)nc(N)c3c2)cc1,active: 1.64 µM,–
O=C(Nc1ccc2c(c1)OCO2)c1cc(-c2ccccc2Cl)on1,"inconclusive [cytotoxic, partial curve]",–
Cc1ccc(C(=O)CSc2nnc(-c3cccnc3)n2N)cc1,"inconclusive [cytotoxic, single point]",–
Cc1cc(C)c(NC(=O)C2C(=O)Nc3ccccc3C(=O)N2C(C)(C)C)c(C)c1 (stereo not drawn),inactive,–
CC1(C)Cc2c(cnn2-c2ccc(F)cc2)C(NC(=O)CCc2ccncc2)C1 (stereo not drawn),inactive,–
CN(C)c1ccc(C(=O)/C=C/c2cccnc2)cc1,"inconclusive [cytotoxic, single point]",–
CC(C)c1ccc(NC(=O)Nc2nc(C(N)C(C)C)cs2)cc1 (stereo not drawn),"inconclusive [cytotoxic, single point]",–
COc1ccc(C)cc1Nc1n[n+](-c2ccccc2)c(-c2ccc(SC)cc2)s1,active: 18.4 µM,–
Cc1ccc(OCC(O)CN2CCC(Cc3ccccc3)CC2)c(C)c1 (stereo not drawn),"inconclusive [cytotoxic, single point]",–
O=C(N[C@H](Cc1ccc(Cl)cc1)C(=O)O)OCC1c2ccccc2-c2ccccc21,"inconclusive [cytotoxic, single point]",–
Cc1nn(CC(=O)OCC(=O)c2ccc(OC(F)F)cc2)c(C)c1[N+](=O)[O-],inactive,–
CCc1c(C)nc2cc(-c3cc(OC)cc(OC)c3)nn2c1N1CCCC1,–,inconclusive: -46.1%
O=C(CSc1nc2ncc(Cl)cc2[nH]1)Nc1ccccc1-c1ccccc1,"inconclusive [cytotoxic, single point]",–
Cc1nc(Nc2nc3c(c(=O)[nH]2)CCC3)nc2ccccc12,"inconclusive [cytotoxic, single point]",–
